The text below walks through data of publication PMC11933320.

By UniProt entry, the sequences of proteins in these tests, tags left out.
UniProt Q86WV6: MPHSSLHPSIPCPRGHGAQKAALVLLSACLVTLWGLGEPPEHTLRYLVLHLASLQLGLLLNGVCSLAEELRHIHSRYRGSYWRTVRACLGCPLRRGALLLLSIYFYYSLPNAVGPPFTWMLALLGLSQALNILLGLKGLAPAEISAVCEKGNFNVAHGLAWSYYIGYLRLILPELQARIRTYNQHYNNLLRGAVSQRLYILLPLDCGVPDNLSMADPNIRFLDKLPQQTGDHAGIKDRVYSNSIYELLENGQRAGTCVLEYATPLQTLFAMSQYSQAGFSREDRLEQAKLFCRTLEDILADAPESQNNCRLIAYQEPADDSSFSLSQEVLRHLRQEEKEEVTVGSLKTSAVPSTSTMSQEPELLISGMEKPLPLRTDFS
UniProt Q7Z434: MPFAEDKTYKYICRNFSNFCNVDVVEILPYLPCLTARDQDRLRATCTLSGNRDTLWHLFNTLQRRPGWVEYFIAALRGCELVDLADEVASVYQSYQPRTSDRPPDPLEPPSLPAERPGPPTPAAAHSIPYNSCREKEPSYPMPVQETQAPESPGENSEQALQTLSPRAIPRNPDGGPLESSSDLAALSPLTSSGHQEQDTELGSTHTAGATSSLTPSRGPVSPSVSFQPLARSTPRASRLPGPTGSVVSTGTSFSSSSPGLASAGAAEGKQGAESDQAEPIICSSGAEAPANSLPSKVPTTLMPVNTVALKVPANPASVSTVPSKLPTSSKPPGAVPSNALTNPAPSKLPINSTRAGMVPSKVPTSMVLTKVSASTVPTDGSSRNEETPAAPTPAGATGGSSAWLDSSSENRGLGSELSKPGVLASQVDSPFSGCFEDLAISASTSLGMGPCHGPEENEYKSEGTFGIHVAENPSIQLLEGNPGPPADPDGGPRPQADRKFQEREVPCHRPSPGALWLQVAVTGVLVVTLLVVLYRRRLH
UniProt Q8N884: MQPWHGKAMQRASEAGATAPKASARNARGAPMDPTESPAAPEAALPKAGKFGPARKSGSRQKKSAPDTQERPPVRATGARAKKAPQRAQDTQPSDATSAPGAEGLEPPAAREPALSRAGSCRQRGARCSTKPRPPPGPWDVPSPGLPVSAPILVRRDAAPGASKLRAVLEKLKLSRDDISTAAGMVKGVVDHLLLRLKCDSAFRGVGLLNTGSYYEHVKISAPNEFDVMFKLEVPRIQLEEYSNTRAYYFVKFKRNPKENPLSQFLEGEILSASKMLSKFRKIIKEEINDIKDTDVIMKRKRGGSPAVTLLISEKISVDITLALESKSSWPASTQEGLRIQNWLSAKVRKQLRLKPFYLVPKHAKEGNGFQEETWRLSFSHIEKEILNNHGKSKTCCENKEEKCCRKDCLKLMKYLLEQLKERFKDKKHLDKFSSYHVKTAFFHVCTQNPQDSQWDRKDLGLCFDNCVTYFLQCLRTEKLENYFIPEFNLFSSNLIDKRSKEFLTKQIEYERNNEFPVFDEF

Assay [1] addresses T1, Endogenous DSTYK (human (endogenous in HeLa)) (UniProt Q6XUX3).
T1 sequence: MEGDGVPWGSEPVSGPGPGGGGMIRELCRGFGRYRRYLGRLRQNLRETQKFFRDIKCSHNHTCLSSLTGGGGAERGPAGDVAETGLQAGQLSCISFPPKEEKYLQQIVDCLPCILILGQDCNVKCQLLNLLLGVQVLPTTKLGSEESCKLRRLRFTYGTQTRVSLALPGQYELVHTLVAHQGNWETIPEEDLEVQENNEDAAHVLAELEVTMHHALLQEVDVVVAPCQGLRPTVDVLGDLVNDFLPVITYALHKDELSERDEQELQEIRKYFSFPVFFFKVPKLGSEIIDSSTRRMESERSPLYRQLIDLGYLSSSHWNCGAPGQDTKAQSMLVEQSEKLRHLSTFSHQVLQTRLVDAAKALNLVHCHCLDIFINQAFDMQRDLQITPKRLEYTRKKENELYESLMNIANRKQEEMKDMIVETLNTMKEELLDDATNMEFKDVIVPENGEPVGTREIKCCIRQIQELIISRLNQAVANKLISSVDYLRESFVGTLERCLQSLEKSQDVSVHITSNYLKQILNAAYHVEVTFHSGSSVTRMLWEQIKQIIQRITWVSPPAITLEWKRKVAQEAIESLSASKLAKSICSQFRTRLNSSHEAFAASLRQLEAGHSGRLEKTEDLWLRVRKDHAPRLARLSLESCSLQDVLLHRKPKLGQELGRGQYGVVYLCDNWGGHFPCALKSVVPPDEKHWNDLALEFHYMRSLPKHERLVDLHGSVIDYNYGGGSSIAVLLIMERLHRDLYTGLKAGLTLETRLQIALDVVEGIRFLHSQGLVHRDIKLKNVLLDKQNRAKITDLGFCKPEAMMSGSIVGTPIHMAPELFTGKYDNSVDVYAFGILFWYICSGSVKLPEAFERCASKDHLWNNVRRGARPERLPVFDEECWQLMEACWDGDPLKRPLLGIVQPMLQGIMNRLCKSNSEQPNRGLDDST
Description: co-IP; endogenous proteins; HeLa cells stimulated with pDNA (1 ug/mL) for 18 and 24 h; IP with anti-DSTYK, IB with anti-DSTYK and anti-STING.

Assay [2] addresses T2, HA-tagged DSTYK-D777A (kinase-dead mutant) (human) (UniProt Q6XUX3).
T2 sequence: T1 sequence with D777A
Description: co-IP; HEK293T cells transfected with the indicated plasmids (5 ug each) for 24 h; Triton X-100 lysis buffer; IP with anti-HA, IB with anti-HA and anti-Flag.

The target of assay [3] is T3, HA-tagged DSTYK-K681A (kinase-dead mutant) (human) (UniProt Q6XUX3).
T3 sequence: T1 sequence with K681A
Described as above.

Assay [4] concerns the target T4, HA-tagged dual serine/threonine and tyrosine protein kinase (DSTYK) (human) (UniProt Q6XUX3).
T4 sequence: T1 sequence
The description is as above.

The target of assay [5] is T5, Flag-tagged dual serine/threonine and tyrosine protein kinase (DSTYK) (human) (UniProt Q6XUX3).
T5 sequence: T1 sequence
Put plainly: co-IP; STING-non-expressing HEK293T cells transfected with Flag-tag and HA-tag plasmids (5 ug each) for 24 h; Triton X-100 lysis buffer; IP with anti-Flag, IB with anti-HA and anti-Flag.

Assay [6] concerns the target Flag-tagged stimulator of interferon genes (STING) (human) (UniProt Q86WV6). Described as above.

Numbering of substitutions follows the chain as printed. These are yes or no findings as the source states them, for the method shown. In cells and extracts the contact can be indirect. Some binding calls cover weakened binding; strength is not graded here. For part of these data: Where a sequence is shown, tags or fusion partners need not be part of it.

Consider “Endogenous STING (from UniProt Q86WV6 1-379)”, for which the binding result in assay [1] is on record as “binds”.

“Flag-tagged stimulator of interferon genes (STING) (from UniProt Q86WV6 1-379)”: the binding result in assay [2], in assay [3] and in assay [4] was “binds” in each case.

In the case of “HA-tagged VISA (from UniProt Q7Z434 1-540)”, the binding entry in assay [5] is “no binding”.

As for “HA-tagged cyclic GMP-AMP synthase (cGAS) (from UniProt Q8N884 1-522) (enzyme)”, the binding result in assay [5] was “no binding”.

B1: HA-tagged RIG-I (protein, UniProt O95786 1-925)
chain: MTTEQRRSLQAFQDYIRKTLDPTYILSYMAPWFREEEVQYIQAEKNNKGPMEAATLFLKFLLELQEEGWFRGFLDALDHAGYSGLYEAIESWDFKKIEKLEEYRLLLKRLQPEFKTRIIPTDIISDLSECLINQECEEILQICSTKGMMAGAEKLVECLLRSDKENWPKTLKLALEKERNKFSELWIVEKGIKDVETEDLEDKMETSDIQIFYQEDPECQNLSENSCPPSEVSDTNLYSPFKPRNYQLELALPAMKGKNTIICAPTGCGKTFVSLLICEHHLKKFPQGQKGKVVFFANQIPVYEQQKSVFSKYFERHGYRVTGISGATAENVPVEQIVENNDIIILTPQILVNNLKKGTIPSLSIFTLMIFDECHNTSKQHPYNMIMFNYLDQKLGGSSGPLPQVIGLTASVGVGDAKNTDEALDYICKLCASLDASVIATVKHNLEELEQVVYKPQKFFRKVESRISDKFKYIIAQLMRDTESLAKRICKDLENLSQIQNREFGTQKYEQWIVTVQKACMVFQMPDKDEESRICKALFLYTSHLRKYNDALIISEHARMKDALDYLKDFFSNVRAAGFDEIEQDLTQRFEEKLQELESVSRDPSNENPKLEDLCFILQEEYHLNPETITILFVKTRALVDALKNWIEGNPKLSFLKPGILTGRGKTNQNTGMTLPAQKCILDAFKASGDHNILIATSVADEGIDIAQCNLVILYEYVGNVIKMIQTRGRGRARGSKCFLLTSNAGVIEKEQINMYKEKMMNDSILRLQTWDEAVFREKILHIQTHEKFIRDSQEKPKPVPDKENKKLLCRKCKALACYTADVRVIEECHYTVLGDAFKECFVSRPHPKPKQFSSFEKRAKIFCARQNCSHDWGIHVKYKTFEIPVIKIESFVVEDIATGVQTLYSKWKDFHFEKIPFDPAEMSK
Regarding B1, in assay [5], the binding result is listed as “no binding”.

B2: HA-tagged dual serine/threonine and tyrosine protein kinase (DSTYK) (enzyme, UniProt Q6XUX3 1-929)
chain: T1 sequence
On to B2, for which, in assay [6], the binding result is “binds”.

B3: HA-tagged TANK-binding kinase 1 (TBK1) (enzyme, UniProt Q9UHD2 1-729)
chain: MQSTSNHLWLLSDILGQGATANVFRGRHKKTGDLFAIKVFNNISFLRPVDVQMREFEVLKKLNHKNIVKLFAIEEETTTRHKVLIMEFCPCGSLYTVLEEPSNAYGLPESEFLIVLRDVVGGMNHLRENGIVHRDIKPGNIMRVIGEDGQSVYKLTDFGAARELEDDEQFVSLYGTEEYLHPDMYERAVLRKDHQKKYGATVDLWSIGVTFYHAATGSLPFRPFEGPRRNKEVMYKIITGKPSGAISGVQKAENGPIDWSGDMPVSCSLSRGLQVLLTPVLANILEADQEKCWGFDQFFAETSDILHRMVIHVFSLQQMTAHKIYIHSYNTATIFHELVYKQTKIISSNQELIYEGRRLVLEPGRLAQHFPKTTEENPIFVVSREPLNTIGLIYEKISLPKVHPRYDLDGDASMAKAITGVVCYACRIASTLLLYQELMRKGIRWLIELIKDDYNETVHKKTEVVITLDFCIRNIEKTVKVYEKLMKINLEAAELGEISDIHTKLLRLSSSQGTIETSLQDIDSRLSPGGSLADAWAHQEGTHPKDRNVEKLQVLLNCMTEIYYQFKKDKAERRLAYNEEQIHKFDKQKLYYHATKAMTHFTDECVKKYEAFLNKSEEWIRKMLHLRKQLLSLTNQCFDIEEEVSKYQEYTNELQETLPQKMFTASSGIKHTMTPIYPSSNTLVEMTLGMKKLKEEMEGVVKELAENNHILERFGSLTMDGGLRNVDCL
In the case of B3, the binding entry in assay [5] is on record as “no binding”.
